Measurements reported in PubChem BioAssay AID686930 (Broad Institute, 2013).
For part of its entries the source gives two or more results. This list holds those alone. The source may hold further records. The values listed for one entry are repeated measurements in other runs, samples, wells, individuals or studies. Marks in square brackets tell the records apart. Letters hold for one entry only.

Test system: V. cholerae WN1103 ΔluxQ, lux luminescence, 6 h
Experiment: Confirmatory dose response, V. cholerae WN1103 δluxq inducers of light production, absence of autoinducers (AID 686930)

SMILES: Cc1ccc2cc3c(NC(=O)c4ccco4)nn(C)c3nc2c1
- AC40: 4.13 µM [sample A] and 57 µM [sample B]
